Screen size: about 310,000 compounds; about 14,000 (4.5%) showed an effect of 50% or more. Effects have a minus sign here. The list shows a part of the results.
What follows are molecules tested against human ether-à-go-go-related gene (hERG) potassium channel (human, UniProt Q12809) (assay: primary screen, population patch clamp on CHO cells stably expressing hERG).
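Note: peak tail current of the secondary pulse compared with the same well before compound.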

human ether-à-go-go-related gene (hERG) potassium channel, sequence (Q12809 whole entry, looked up): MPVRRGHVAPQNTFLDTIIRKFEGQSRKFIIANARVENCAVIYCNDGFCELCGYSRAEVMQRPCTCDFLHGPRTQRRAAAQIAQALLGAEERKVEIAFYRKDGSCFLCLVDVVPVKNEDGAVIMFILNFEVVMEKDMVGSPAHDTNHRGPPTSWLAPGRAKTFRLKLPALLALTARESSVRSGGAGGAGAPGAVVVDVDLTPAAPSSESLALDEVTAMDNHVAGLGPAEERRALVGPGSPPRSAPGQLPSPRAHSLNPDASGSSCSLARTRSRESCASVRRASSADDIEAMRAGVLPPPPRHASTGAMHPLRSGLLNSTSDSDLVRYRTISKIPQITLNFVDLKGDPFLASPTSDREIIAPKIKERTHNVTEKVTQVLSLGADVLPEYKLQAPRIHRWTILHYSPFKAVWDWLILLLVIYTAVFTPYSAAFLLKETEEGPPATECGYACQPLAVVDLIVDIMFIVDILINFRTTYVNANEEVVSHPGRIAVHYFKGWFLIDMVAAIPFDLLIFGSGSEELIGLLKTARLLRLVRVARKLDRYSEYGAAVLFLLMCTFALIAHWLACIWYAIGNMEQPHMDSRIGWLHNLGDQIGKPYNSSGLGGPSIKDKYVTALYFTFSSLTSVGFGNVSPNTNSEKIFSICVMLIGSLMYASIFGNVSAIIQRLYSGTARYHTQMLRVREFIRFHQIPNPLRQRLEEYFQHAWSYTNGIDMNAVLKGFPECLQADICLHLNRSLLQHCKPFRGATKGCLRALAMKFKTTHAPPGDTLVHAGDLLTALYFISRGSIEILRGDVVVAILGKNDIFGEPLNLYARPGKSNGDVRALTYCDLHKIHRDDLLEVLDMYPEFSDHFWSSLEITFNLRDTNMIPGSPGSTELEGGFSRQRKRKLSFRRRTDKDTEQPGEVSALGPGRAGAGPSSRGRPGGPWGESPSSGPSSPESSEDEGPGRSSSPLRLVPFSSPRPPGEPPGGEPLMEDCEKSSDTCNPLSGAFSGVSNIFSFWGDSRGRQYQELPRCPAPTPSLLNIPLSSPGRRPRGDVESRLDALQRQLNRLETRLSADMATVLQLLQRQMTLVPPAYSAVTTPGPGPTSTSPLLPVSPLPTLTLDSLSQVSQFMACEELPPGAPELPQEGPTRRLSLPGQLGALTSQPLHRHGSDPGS

Row | SMILES | hERG current change (%, negative = inhibition) at 10uM [%]
1 | COc1ccc(NC(=O)C2CCCN(S(=O)(=O)c3cccnc3)C2)cc1OC (centres unmarked) | 16.2
2 | Cc1ccc(C(=O)Nc2cccc(NC(=O)c3ccc(C)cc3)n2)cc1 | 2.01
3 | CCCCCn1c(=O)[nH]c2cc(C(=O)NCCCN3CCCCC3CC)ccc2c1=O (centres unmarked) | -40
4 | COCCN1C(=O)N[C@@H](c2ccccc2)C(C(C)=O)=C1C | 19.7
5 | O=C(c1ccc(S(=O)(=O)N2CCCCCC2)cc1)N1CCN(Cc2ccccc2)CC1 | -19.5
6 | Cc1ccccc1Nc1c(-c2cccnc2)nc2ccccn12 | -24.7
7 | Cc1ccc(OCCC(=O)OCC(=O)Nc2ccc(N3CCOCC3)cc2)cc1 | 14
8 | O=C(NN1CCOCC1)c1ccc(Br)cc1 | 7.01
9 | O=C(c1ccc([N+](=O)[O-])s1)N1CCCc2ccccc21 | -4.43
10 | Cc1ccc([N+](=O)[O-])cc1NC(=O)c1ccccc1 | -27.3
11 | COc1cc2[nH]c(C(=O)N3CCN(c4ccc(F)cc4)CC3)cc2c(OC)c1OC | 17.9
12 | COc1cccc(CNC(=O)c2ccccc2NC(=O)C2=C(C)OCCS2)c1OC | 2.51
13 | CS(=O)(=O)N1N=C(c2ccco2)CC1c1cccc([N+](=O)[O-])c1 (centres unmarked) | -6.06
14 | CCN1C(=O)c2ccc(C(=O)Nc3ncc(C)s3)cc2C1=O | 6.29
15 | CSc1nc2ccc(NS(=O)(=O)c3ccc(Cl)s3)cc2s1 | -2.78
16 | CC(=O)C1=C(O)C(=O)N(Cc2ccccc2)C1c1ccc(F)cc1 (centres unmarked) | 22.2
17 | COc1cc(NCc2ccccc2)c2ncn(C(C)C)c2c1 | -11.4
18 | Cc1ccc(-c2cc(C(=O)NCCCN3CCOCC3)c3ccccc3n2)cc1C | 0.698
19 | CCC(C)N=CC1=C(O)CC(c2ccccc2)CC1=O (centres unmarked) | -4.11
20 | CCOC(=O)c1nn(-c2cc(C(=O)OC)cc(C(=O)OC)c2)cc1O | -3.29
21 | Br.CC(C)(C)c1ccc(-c2csc(NNC3=NCCCCC3)n2)cc1 | 4.02
22 | Cc1ccc(CSc2ccc(S(=O)(=O)N3CCCC3)cn2)cc1 | -4.27

Row | SMILES | hERG current change (%, negative = inhibition) at 10uM [%]
23 | Cc1nn(C(=O)Cn2ccc([N+](=O)[O-])n2)c(C)c1Br | -3.85
24 | O=C(CSc1nc2ccccc2c(=O)n1CCCN1CCOCC1)NC12CC3CC(CC(C3)C1)C2 | -67.8
25 | CC(Oc1ccc(-c2ccccc2)c(F)c1)c1ccn(S(=O)(=O)c2ccc(Br)cc2)n1 (centres unmarked) | 7.43
26 | COC(CNC(=O)c1ccc2c3c(onc13)-c1ccccc1C2=O)OC | -1.15
27 | CCCCOC(=O)C1=C(C)NC(=O)NC1c1ccc(N(C)C)cc1 (centres unmarked) | 21.7
28 | Cc1cc(C)cc(N/C(N)=N/c2nc(C)cc(C)n2)c1 | -50
29 | Cc1nc2scc(C)n2c(=O)c1S(=O)(=O)Nc1ccc(N2CCN(C(=O)C(C)C)CC2)cc1 | -0.736
30 | O=S(=O)(/N=C(/Nc1ccccn1)c1ccc(Cl)cc1)c1ccc(Cl)cc1 | -13.3
31 | Cc1ccc(-n2c(-c3ccncc3)n[nH]c2=S)c(C)c1 | 13.7
32 | Cc1oc(-c2cccc(Cl)c2)[n+]([O-])c1C.Cl | 6.8
33 | N/C(=N\NC(=O)c1cccc(F)c1)c1cc2ccccc2oc1=O | -3.1
34 | Cc1ccsc1CN(C)C(=O)CCc1nnc(COc2ccccc2)o1 | -25.7
35 | O=C(CCNc1ccccc1)c1cccc([N+](=O)[O-])c1 | -31.5
36 | COc1ccc(-c2c(-c3ccsc3)oc(=O)c3cc(OC)c(OC)cc23)cc1 | 6.24
37 | COc1cccc(/C(=N/O)C2CC2c2ccc(Cl)cc2)c1 (centres unmarked) | 10.4
38 | O=C(CN1CCN(c2ccccc2O)CC1)Nc1ccc2c(c1)CCC2 | -35.1
39 | COc1ccc(N(CC(=O)Nc2ccc(C)cc2C)S(=O)(=O)c2c(C)n[nH]c2C)cc1 | -4.4
40 | CC(C)c1ccc(OCc2ccc(C(=O)N3CCN(c4ccccn4)CC3)cc2)cc1 | -42.6
41 | O=S(=O)(c1cccc2ccccc12)n1nnc2ccccc21 | 15.6
42 | Cc1cccc(-c2n[nH]c(=S)n2-c2ccccc2)c1[N+](=O)[O-] | 14
43 | CC(C)O/C(=N\S(=O)(=O)c1ccc(Cl)cc1)c1ccccc1 | -10.5
44 | O=C(Nc1cc(F)ccc1F)N1CCN(c2ccnc3cc(Cl)ccc23)CC1 | -66.4

— publication PMC4336329 (PLoS ONE, 2015)
